The supplement of paper PMC4604168 (melanoma cell lines)
Some of the results follow. Most values come without repeats; read them as rough.

Test system: WM3619
Assay: cell count relative to DMSO control; melanoma cells; higher = more viable cells
Details: library dose: low library concentration; 72 h
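Also: cell number obtained by counting DAPI-stained nuclei in high-throughput microscope images with image analysis software, screen run in 1,536-well plates.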

Compound	cell count
C[C@]1(c2nc3c(C(N)=O)cccc3[nH]2)CCCN1 [Veliparib] + O=C(O)C(=O)Nc1sc2c(c1C(=O)O)CCNC2 [TCS401] (first compound 1.4 µM, partner dose 1.66667 µM)	91.5%
CO[C@@H]1[C@H](N(C)C(=O)c2ccccc2)C[C@H]2O[C@]1(C)n1c3ccccc3c3c4c(c5c6ccccc6n2c5c31)C(=O)NC4 [Midostaurin] + NC(=O)Nc1cc(-c2cccc(F)c2)sc1C(=O)N[C@H]1CCCNC1 [AZD7762] (first compound 0.08 µM, partner dose 0.02 µM)	38.5%
CN(C)S(=O)(=O)c1ccc2c(c1)/C(=C/c1cc3c([nH]1)CCCC3)C(=O)N2 + CN(NC(=O)CC(=O)NN(C)C(=S)c1ccccc1)C(=S)c1ccccc1 [STA4783] (first compound 0.4 µM, partner dose 0.006 µM)	64%
CO[C@@H]1[C@H](N(C)C(=O)c2ccccc2)C[C@H]2O[C@]1(C)n1c3ccccc3c3c4c(c5c6ccccc6n2c5c31)C(=O)NC4 [Midostaurin] + CC(C)CCN1c2nc(Nc3cc(F)c(O)c(F)c3)ncc2N(C)C(=O)C1C [BID1870] (first compound 0.08 µM, partner dose 0.2 µM)	74.7%
C=CCn1c(=O)c2cnc(Nc3ccc(N4CCN(C)CC4)cc3)nc2n1-c1cccc(C(C)(C)O)n1 + COc1cc2c(Oc3ccc4[nH]c(C)cc4c3F)ncnc2cc1OCCCN1CCCC1 [cediranib] (first compound 0.02 µM, partner dose 0.4 µM)	74.9%
CO[C@@H]1[C@H](N(C)C(=O)c2ccccc2)C[C@H]2O[C@]1(C)n1c3ccccc3c3c4c(c5c6ccccc6n2c5c31)C(=O)NC4 [Midostaurin] + O=C(O)c1ccc(-c2c[nH]c3ncc(-c4ccccc4)cc23)cc1C1CCCC1 [GSK650394] (first compound 0.08 µM, partner dose 0.16 µM)	99.8%
C=CCn1c(=O)c2cnc(Nc3ccc(N4CCN(C)CC4)cc3)nc2n1-c1cccc(C(C)(C)O)n1 + Cc1ccc(NC(=O)c2cccc(N(C)C)c2)cc1NC(=O)c1ccc(O)cc1 [ZM336372] (first compound 0.02 µM, partner dose 2 µM)	54.7%
CO[C@@H]1[C@H](N(C)C(=O)c2ccccc2)C[C@H]2O[C@]1(C)n1c3ccccc3c3c4c(c5c6ccccc6n2c5c31)C(=O)NC4 [Midostaurin] + CN(C)S(=O)(=O)c1ccc2c(c1)/C(=C/c1cc3c([nH]1)CCCC3)C(=O)N2 [SU6656] (first compound 0.08 µM, partner dose 0.4 µM)	96.4%
NC(=O)Nc1cc(-c2cccc(F)c2)sc1C(=O)N[C@H]1CCCNC1 + Oc1cc(-c2nc(-c3ccccc3)[nH]c2-c2ccncc2)ccc1Cl [L779450] (first compound 0.02 µM, partner dose 0.2 µM)	60.8%
